The source of these data is PubChem BioAssay (NCI).

Values joined by “and” are separate entries in the source; they are usually repeats but may differ in a detail not shown here. Equal entries are not always repeated.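 Cells were grown in 96-well plates and exposed to each compound for 48 hours at five concentrations; endpoints were interpolated linearly between bracketing concentrations, or set to the highest concentration if not reached. At the GI50, growth is halved. At the TGI there is no net growth.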 Bounds are passed on as bounds.

This assay deals with NCI-H322M lung. The assay is described as follows: DTP human tumour cell line panel, 48 h.
Consider `Cc1cc(OCc2nnc3n2N=C(c2cc(F)c(Cl)cc2Cl)/C(=C/c2ccc(Cl)cc2)S3)ccc1Cl`, for which the TGI (usually the concentration at which net growth stops) was > 100 µM. In the case of `O=C(c1ccc(Cl)cc1)c1cnc(Nc2ccccc2Cl)s1`, the TGI was determined as 52.9 µM. `CN(C)c1c([O-])c(=[N+](C)C)c1=O`: the TGI was > 100 µM.

As to `CC12CCC3C(CCC4=CC(O)CCC43C=O)C1(O)CCC2c1ccc(=O)oc1` (stereo not drawn), the GI50 – broadly, the concentration that inhibits growth by half – is 0.05 µM; the TGI is 0.133 µM and 0.0542 µM. For `CC(C)=C1C(=O)C[C@]2(C)C[C@H]3/C(=C(/C)CCC12)CC[C@@]3(C)O` (stereo partly drawn), the TGI was > 50 µM. Turning to `CCOC(=O)C(C)(C)Oc1ccc2c(C)c(-c3ccc(Cl)cc3)c(=O)oc2c1`, the TGI was > 100 µM.

In the case of `Cc1ccc(Cn2c(C)nc3c2C(=O)c2ccccc2C3=O)cc1`, the TGI is > 100 µM. Turning to `CC1=CC(=O)[C@@H](O)[C@]2(C)[C@H]3[C@@]4(O)OC[C@]35[C@H]([C@@H](C)[C@H]4O)[C@@H](O)C(=O)O[C@@H]5C[C@@H]12`, the TGI was 25.8 µM. The same measure, in the same setting: the result for `CCOP(=O)(O)C(C)(C)NC` reads > 100 µM. In the case of `COC12C=C/C(=C(/C(=O)OCc3ccncc3)C(=O)CCCCCCCCC3(OC)C=C/C(=C(/C(=O)OCc4ccncc4)C(=O)CCCCCCCC1)O3)O2`, the GI50 is 0.83 µM and the TGI came to 2.05 µM.

For the compound `COc1ccc(C(O)c2nccn2C)c(OC)c1` (stereo not drawn), the TGI is > 100 µM.

`CC#C[P+](c1ccccc1)(c1ccccc1)c1ccccc1`: the TGI was 41.4 µM. Still for that read-out and setting: the result for `N#C/C(N)=C(\C#N)NC=NCc1ccccc1` reads > 100 µM. Same read-out and setting: the same measure for `C[C@@H]1C[C@](O)([C@@H](C)Cl)C(=O)O[C@@H]2CCN3CC=C(COC(=O)[C@]1(C)O)[C@H]23`: > 100 µM; for `O=C(O)[C@H](NS(=O)(=O)c1ccc2ccccc2c1)c1ccccc1`: > 100 µM. Turning to `CCOC(=O)c1ccc(C(=O)/C(C#N)=C2\CCCN2C)[nH]1`, the TGI is > 100 µM. As for `CC1(C)OC(=C(C#N)C#N)C(C#N)=C1/C=C/c1ccncc1`, the TGI turned out to be 13.5 µM. For `CN1CCN(CN2C(=O)C3C4C=CC(C3C2=O)C2C(=O)N(CN3CCN(C)CC3)C(=O)C42)CC1` (stereo not drawn), the TGI is > 100 µM. As to `CCN(CC)CCOc1ccc(/C=C2\CC3C4CC=C5C[C@@H](O)CC[C@]5(C)C4CC[C@]3(C)C2=O)cc1OC` (stereo partly drawn), the GI50 is 6.55 µM and the TGI was 19.2 µM. `O=[N+]([O-])c1cc2c(c3nonc13)OCCCCO2` displayed a TGI of 41.1 µM. Regarding `CC(C)(C)c1cc(C(=O)/C=C/C=C/c2ccccc2)cc(C(C)(C)C)c1O`, the TGI was > 100 µM. Turning to `CCCn1c(N)c(C(=O)N/N=C(/C)c2cc3cccc(OC)c3o2)sc1=S`, the GI50 is 52.2 µM and the TGI is > 100 µM. On to `CCCC(O)C(NC(=O)CCl)C(=O)O` (stereo not drawn), for which the TGI is > 100 µM. As to `O=C1/C(=C/c2ccccc2)NC(=S)N1CN1CCOCC1`, the TGI was > 100 µM. With `O=C1C[C@H]2[C@@H](O1)[C@@H](O)CN1C(=O)c3ccccc3[C@H]21`, the TGI was > 100 µM. For `CC(C)C[C@H]1[C@@H](OCc2ccccc2)COS(=O)N1[C@H](C)c1ccccc1` (stereo partly drawn), the TGI stood at 55 µM. On to `Cc1nc2ccccc2nc1-c1ccc(N=[N+]([O-])c2ccc(-c3nc4ccccc4nc3C)cc2)cc1`, for which the TGI is > 100 µM.

For the compound `COc1cc(/C=C/C(=O)O)ccc1C(=O)OCc1ccccc1`, the TGI is > 100 µM.

As to `COc1cccc2c1C(=O)c1c(O)c3c(c(O)c1C2=O)C[C@@](O)(C(=O)CO)C[C@@H]3OC1CC(N)C(OC)C(C)O1` (stereo partly drawn), the TGI was 4.9 µM. For `CCOC(=O)c1csc(NC(=O)CN2CCN(C)CC2)n1`, the TGI is > 100 µM. Regarding `Cc1ccsc1/C=N/Nc1ccc2ccccc2n1`, the TGI worked out at 98.7 µM. Turning to `O=c1n(-c2ccccc2)c(=O)n2n1C1C=CC2C2C(C1)C2(Cl)Cl` (stereo not drawn), the TGI was > 100 µM.

For the compound `NS(=O)(=O)c1ccc(N(/C=C/C(=O)C(F)(F)F)CC(=O)c2ccc(Cl)cc2)cc1`, the GI50 is 34.3 µM and the TGI was > 100 µM. In the case of `COc1ccc(C(=O)/C=C/c2ccncc2)cc1OC`, the TGI worked out at 29.2 µM. On the same count and under the same terms, the same measure for `CC(=O)Nc1ccc2cc(C)c(=O)[nH]c2n1`: > 100 µM.

Take `C=CC(=O)N1CCC(C2CCNc3c(C(N)=O)c(-c4ccc(Oc5ccccc5)cc4)nn32)CC1` (stereo not drawn): the GI50 was 2.43 µM and the TGI is > 100 µM. Turning to `Cc1ccc(-c2cc(-c3ccc(Cl)cc3)nc(/N=C3\C(=O)N(CN4CCOCC4)c4ccc(Cl)cc43)n2)cc1`, the TGI was > 100 µM. With `CCCCCCC[CH2][Sn]1([CH2]CCCCCCC)[O]C(=O)c2cccnc2[S]1`, the GI50 was > 100 µM and the TGI was > 100 µM.

With `C=CCc1cccc(/C=N/NC(=O)CN2CCN(Cc3ccccc3)CC2)c1O`, the GI50 was 1.37 µM and the TGI came to 14.2 µM. For the compound `N#Cc1c(-c2ccc(F)cc2)c(-c2ccc(F)cc2)nn(CCO)c1=O`, the TGI was > 100 µM. For the compound `CN(CCN(C)C(=S)NN)C(=S)NN`, the TGI was > 100 µM.

On to `C[C@H]1Oc2cc(cnc2N)-c2c(nn(C)c2C#N)CN(C)C(=O)c2ccc(F)cc21`, for which the GI50 was 33.2 µM and the TGI is > 100 µM.

With `O=C1[C@@H]2C3c4ccccc4C([C@@H]2C(=O)N1c1ccccc1)S3(=O)=O`, the TGI is > 100 µM. The compound `CC(=O)OC1O[C@@H](C(C)(C)O)CC[C@@H]1[C@H]1CC[C@@]2(C)C3=C(CC[C@]12C)[C@@]1(C)C[C@@H](OC(=O)CC(C)(O)CC(=O)O)[C@H](OC(C)=O)C(C)(C)C1CC3` (stereo partly drawn) yielded a TGI of 31.3 µM. Turning to `O=C(N/N=C1/C(=O)N(c2ccc(Cl)cc2Cl)C(=O)C(=O)C1c1nc2ccccc2o1)c1ccccc1O` (stereo not drawn), the TGI was > 100 µM. On the same count and under the same terms, the same measure for `CCN(CC)C(=S)SS(=O)(=O)c1ccc(F)cc1`: > 100 µM. Consider `COc1ccncc1C#Cc1cncc(C(=O)Nc2ccc(CN3CCN(C)CC3)c(C(F)(F)F)c2)c1`, for which the GI50 is 27.9 µM and the TGI was > 100 µM. For `COc1cc(CNCCCN2C(=O)c3ccc4c5c(ccc(c35)C2=O)C(=O)N(CCCNCc2cc(OC)c(OC)c(OC)c2)C4=O)cc(OC)c1OC`, the GI50 is 0.404 µM and the TGI is 1.54 µM. Take `CC(C)(C)C(=O)OC(N)/C=C/c1ccccc1` (stereo not drawn): the TGI is > 100 µM.

As to `CCN(CC)c1nc(-c2ccc(Cl)cc2Cl)nc2ccccc12`, the GI50 is 18.7 µM and the TGI worked out at 75.6 µM. Regarding `CC(C)(C)NC(=O)N1N=C(c2ccccc2)C1c1ccccc1` (stereo not drawn), the TGI was > 100 µM.
